According to PubChem BioAssay AID485344 (National Center for Advancing Translational Sciences (NCATS), 2010):
About 6,900 (2%) of roughly 340,000 compounds were called active. Rule as the data show it: active = inhibition above about 30%; inactive = below that, where a call was filed. Only a part is listed here, and it is no random draw. Entries without a call were filed so in the source.

Target: D(2) dopamine receptor (Homo sapiens) (UniProt P14416)
Test: HTS Assay for Allosteric Antagonists of the Human D2 Dopamine Receptor: Primary Screen for Antagonists; also: 0% is about no effect
Settings: HEK293 TREx D2 cells, calcium flux, dopamine EC80; at 10 µM; stronger effect = higher value
Outline: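 Dopamine at EC80 is the agonist stimulus; test compounds precede it by 180 s. Calcium flux read kinetically in a force-coupled, inducible HEK293 T-REx D2 cell line.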

UniProt P14416, sequence (P14416 whole entry, looked up): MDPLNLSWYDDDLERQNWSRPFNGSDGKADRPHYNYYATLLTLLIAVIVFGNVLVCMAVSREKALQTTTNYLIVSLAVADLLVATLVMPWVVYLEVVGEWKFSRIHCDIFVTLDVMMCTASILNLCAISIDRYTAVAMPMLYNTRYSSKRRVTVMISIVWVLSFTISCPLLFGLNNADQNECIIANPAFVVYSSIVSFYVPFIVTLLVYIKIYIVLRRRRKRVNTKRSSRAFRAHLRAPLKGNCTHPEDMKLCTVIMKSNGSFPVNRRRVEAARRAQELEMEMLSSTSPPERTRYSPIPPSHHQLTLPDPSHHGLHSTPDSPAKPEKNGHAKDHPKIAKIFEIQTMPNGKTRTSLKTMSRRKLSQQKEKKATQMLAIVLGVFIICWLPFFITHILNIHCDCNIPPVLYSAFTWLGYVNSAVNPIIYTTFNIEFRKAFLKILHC

Row | SMILES | inhibition
1 | O=C1C(=O)N(C2CCN(C(=O)c3cccc(Cl)c3)CC2)CCN1Cc1ccc(F)cc1 | 0.541%
2 | O=C(CSc1nc2c([nH]c3ccccc32)c(=O)n1-c1ccccc1F)Nc1cccc(C(F)(F)F)c1 | 0.208%
3 | CCOc1ccc(NC(=O)c2cnc3sc(N4CCOCC4)nn3c2=O)cc1 | -7.95%
4 | COC(=O)CCN(c1ccccc1)C(CNS(=O)(=O)c1ccccc1)c1ccccc1 (stereo not given) | -5.03%
5 | CN(Cc1nc(-c2ccccn2)no1)S(=O)(=O)c1ccccc1 | active: 37.5%
6 | COc1ccc(Nc2oc(/C=C/c3ccccc3OC)nc2C#N)cc1 | -11.4%
7 | O=C(Nc1cccc(C(=O)OCc2cc(=O)n3nc(C4CC4)sc3n2)c1)c1cccc(Cl)c1 | -9.69%
8 | CCOc1ccc(CCNC(=O)Cn2c(-c3cccs3)cc3ccccc32)cc1OCC | -5.47%
9 | Cc1ccc(C)c(NC(=O)CSc2ccc3nc(-c4ccccc4)cn3n2)c1 | 16.3%
10 | Cc1cc2oc(C(=O)N(Cc3ccc(N(C)C)cc3)Cc3ccco3)c(C)c2cc1Cl | 5.89%
11 | Cc1ccccc1Nc1nc(N)c(C(=O)c2ccccc2Cl)s1 | 12.5%
12 | Cc1ccc(C(=O)Nc2cccc3[nH]c(C(F)(F)F)nc23)cc1 | active: 33.6%
13 | CCCCc1ccc(NC(=O)CSc2nc(=O)[nH]c3c2CCCC3)cc1 | 10.2%
14 | Cc1ccc(N2C(=O)CSC23C(=O)N(CC(=O)NCc2ccccc2)c2ccccc23)cc1 (stereo not given) | -4%
15 | O=C(CN1C(=O)C2(SCC(=O)N2c2ccc(F)cc2)c2ccccc21)NC1CCCCC1 (stereo not given) | 0.869%
16 | Cc1ccc2c(c1)C(=O)OC(C(=O)Nc1ccccc1C(=O)O)C2 (stereo not given) | 1.89%
17 | O=S(=O)(Nc1ccc(-c2cn3ccccc3n2)cc1)c1ccccc1 | active: 40%
18 | CC1=C(c2ccc(C)c(C)c2)S(=O)(=O)N(Cc2ccc(C(=O)Nc3cc(F)ccc3F)cc2)C1=O | -0.913%
19 | Cc1ccc(N2CC(NC(=O)c3cccs3)CC2=O)cc1 (stereo not given) | 0.174%
20 | CCc1cccc(CC)c1NC(=O)c1c(C)oc2ccc(O)c(CN3CCCC3)c12 | -6.54%
21 | O=C(CCCN1C(=O)c2cccnc2Oc2ccc(Cl)cc21)NCc1ccc(F)cc1 | 5.27%
22 | CN1CCN(CCNC(=O)c2cnn(-c3ccc(F)cc3)c2C2CCN(C(=O)OC(C)(C)C)CC2)CC1 | -6.16%
23 | Cc1cccc(C)c1OCC(=O)N(Cc1ccco1)Cc1ccco1 | -1.97%
24 | Cc1ccnc(NS(=O)(=O)c2ccc(NC(=O)c3ccc(C)c(C)c3)cc2)n1 | -2.36%

Row | SMILES | inhibition
25 | O=C(CNC(=O)c1ccc([N+](=O)[O-])cc1)N/N=C\c1ccc(OC(=O)c2ccccc2)cc1 | active: 59.4%
26 | C=Cc1ccc(Cn2c(C)c(CNCCc3ccc(OCC)cc3)c(C(=O)O)c2C)cc1 | -3.56%
27 | CCn1cc(C(=O)N2CCN(c3cccc(Cl)c3)CC2)c(=O)c2cc(S(=O)(=O)N3CCC(C)CC3)ccc21 | 11.5%
28 | CCOC(=O)c1c(C)[nH]c(C)c1S(=O)(=O)N1CCC(C(=O)N2CCN(c3ccc(F)cc3)CC2)CC1 | 22.2%
29 | O=C(N/N=C/c1ccc(Br)s1)c1c[nH]c2ccccc12 | active: 34.1%
30 | Cc1ccc2c(=O)cc(CSc3ncn[nH]3)[nH]c2c1C | -18.5%
31 | Cc1nn2c(C)c(C(=O)N3CCN(c4ccc(Cl)cc4)CC3)cnc2c1-c1ccc(F)cc1 | 6.01%
32 | O=S(=O)(c1ccc(-c2cnc(C3CC3)o2)cc1)N1CCN(c2ccccc2F)CC1 | 16.7%
33 | COc1cc2c(cc1OC)n(CC(=O)c1ccc(C)cc1C)c(=O)n1nc(CCn3nc(C)cc3C)nc21 | -0.404%
34 | O=C(NCCCN1CCN(c2cccc(Cl)c2)CC1)c1ccc2nc(Cc3ccccc3)oc2c1 | 15.3%
35 | CCOC(=O)N1CCN(C(=O)Nc2ccc3oc(C)nc3c2)CC1 | active: 44.4%
36 | COc1ccc(OCC(O)CN2C(=O)NC(C)(C)C2=O)cc1 (stereo not given) | active: 31.1%
37 | COc1cccc(CNC(=O)Cn2nc(C)c3sc4ccccc4c3c2=O)c1OC | -3.09%
38 | Cc1cccc(Nc2sc(C(=O)c3ccc(Cl)cc3)c(N)c2C(N)=O)c1 | 12.3%
39 | COc1ccc(NC(=O)c2cc(-c3ccccc3F)no2)cc1 | 5.95%
40 | O=C(O)CCCC(=O)Nc1nc2n(n1)C(c1ccc(F)cc1)CC(c1ccc(Cl)cc1)N2 (stereo not given) | active: 32.3%
41 | CCc1ccc(NC(=O)Cn2c(=O)n(CCCC(=O)NCc3ccc4c(c3)OCO4)c(=O)c3ccccc32)cc1 | 8.26%
42 | CC(=O)C1=C(c2cccc([N+](=O)[O-])c2)N(C(C)=O)n2c(nnc2-c2ccc(C)cc2)S1 | -13.8%
43 | Cc1occc1C(=O)N/N=C/C=C/c1ccccc1[N+](=O)[O-] | active: 37.6%
44 | CCOC(=O)c1c(S(=O)(=O)N2CCCC(C(=O)N3CCN(c4cc(C)ccc4C)CC3)C2)c(C)n(C)c1C (stereo not given) | 0.751%
45 | CCOC(=O)C(CC)N1CCN(Cc2ccc(F)cc2)C(=O)C1=O (stereo not given) | 10.7%
46 | O=C(Nc1nc2c(F)cccc2s1)c1ccc(S(=O)(=O)N2CCCc3ccccc32)cc1 | -2.38%
47 | CCn1nc(C)c2c(-c3ccccc3)cc(=O)n(C(C)C(=O)Nc3cc(C)ccc3C)c21 (stereo not given) | 5.49%
48 | COc1ccc(-c2ccc(NS(=O)(=O)c3cc(C)c(C)cc3C)cc2)nn1 | 9.69%

Row | SMILES | inhibition
49 | O=C(c1ccc(F)cc1)C1CCN(CCn2c(=O)[nH]c3ccccc3c2=O)CC1 | active: 58.4%
50 | Cc1c(C)n(-c2ccccc2)c2ncnc(NCCN(C)C)c12 | active: 39.7%
51 | CCOC(=O)c1c(NC(=O)C2c3ccccc3Oc3ccccc32)sc2c1CCC(CC)C2 (stereo not given) | -13.3%
52 | Clc1ccc(CCNC(c2ccc(Cl)cc2)c2nnc(-c3ccccc3)o2)cc1 (stereo not given) | -12.1%
53 | CCc1ccc(NC(=O)Cn2nc(SC)c(S(=O)(=O)c3ccc(OC)cc3)c2N)cc1 | -0.966%
54 | CC(C)c1nnc(NC(=O)CCC(=O)Nc2ccc(Cl)cc2)s1 | active: 40.6%
55 | Cc1cc(C)cc(OCCSc2nc3ccc(NC(=O)COc4ccccc4)cc3s2)c1 | -14.1%
56 | O=C(O)CCCCCCCCc1cn(Cc2ccc(C(=O)c3ccccc3)cc2)nn1 | active: 41.6%
57 | Cc1ccc(OCC(=O)Nc2nonc2-c2ccc(Br)cc2)cc1C | -19.6%
58 | COc1ccc(-c2nnc(SCCOc3ccccc3C)o2)cc1OC | 5.66%
59 | Cc1cn(C)c(CC(=O)Nc2ccc(F)cc2Cl)c1C(=O)O | 13.9%
60 | O=S(=O)(c1ccc(Cl)cc1)c1nc(-c2cccs2)oc1SCc1ccccc1F | -19.2%
61 | CCOc1ccc(C2c3c(oc4ccc(C)cc4c3=O)C(=O)N2CCCN(C)C)cc1OC (stereo not given) | 1.69%
62 | CC(C)Oc1ccc(CNC(=O)c2sc3ncccc3c2-n2cccc2)cc1 | -11.8%
63 | COc1ccc(-n2nc(C(=O)Nc3ccc(C(C)=O)cc3)nc2-c2ccccc2)cc1 | 9.47%
64 | CSc1ccc(-c2nc3cccc(C)n3c2Nc2ccc3c(c2)OCO3)cc1 | -10.1%
65 | COc1ccc(-c2nnc(SC(C)C(=O)O)o2)cc1 (stereo not given) | -12.3%
66 | O=C(CN1C(=O)CSc2ccc(S(=O)(=O)N3CCCC3)cc21)NCc1ccccc1Cl | 5.86%
67 | Cc1ccc(OCC(=O)Nc2c(C(=O)c3ccc(Cl)cc3)oc3ccccc23)cc1C | -18.6%
68 | COc1ccc(N2CCN(C(=O)c3cc(S(=O)(=O)N4CCCCCC4)ccc3OC)CC2)cc1 | active: 39.8%
69 | CC(=O)N1CCCc2cc(S(=O)(=O)N3CCCC(C(=O)NC(C)C)C3)ccc21 (stereo not given) | 20.4%
70 | CCCCNC(=O)CCc1c(C)nc2cc(-c3ccccc3)nn2c1C | 5.79%
71 | COc1ccc(N2C(=O)C(CC(=O)Nc3ccccc3)N(CCC3=CCCCC3)C2=O)cc1 (stereo not given) | 3.35%
72 | Cc1[nH]c2ccccc2c1C1(O)C(=O)N(Cc2ccccc2)c2ccc(Cl)cc21 (stereo not given) | 5.03%

Row | SMILES | inhibition
73 | CCc1ccccc1-n1cnc2cc(C(=O)NC3CCCCCC3)ccc21 | -10.8%
74 | COc1ccccc1N1CCN(S(=O)(=O)c2ccc(F)c(C(=O)Nc3ccc(Cl)cc3C(F)(F)F)c2)CC1 | 8.41%
75 | O=C(CCn1c(=O)sc2ccccc21)NCc1ccco1 | active: 41.8%
76 | O=C(Nc1ccccc1Cl)[C@H](CSCc1ccccc1)N1Cc2ccccc2C1=O | 2.95%
77 | O=C(c1ccc2c(c1)CCN2S(=O)(=O)c1ccccc1)N1CCN(c2ccccc2F)CC1 | -2.48%
78 | CC(C)c1ccc(CNC(=O)c2ccc(N3CCCC3)c(NC(=O)NCc3ccccc3)c2)cc1 | -16.3%
79 | CCc1ccc2occ(CC(=O)Nc3ccc(OC)c(Cl)c3)c2c1 | 23.9%
80 | Cc1nc(SCC(=O)Nc2ccc(C)c(Cl)c2)cc(-c2ccccc2)n1 | 8.55%
81 | CCOc1ccc(C(=O)Oc2c(Sc3ccccc3)c(C)nn2C(C)(C)C)cc1OCC | 1.32%
82 | COCCn1c(SCC(=O)Nc2ccccc2OC)nc2ccccc21 | active: 34.6%
83 | CC(=O)c1ccc(NC(=O)Nc2sc3nc4n(c(=O)c3c2C)CCC(C)CC4)cc1 (stereo not given) | -4.47%
84 | COc1ccc(CN(Cc2ccco2)C(=O)COc2ccccc2OC)cc1 | -6.3%
85 | Cc1nc(Nc2cccc(O)c2)c2oc3ccccc3c2n1 | active: 32.6%
86 | COc1ccccc1N1CCN(C2CCCN(S(=O)(=O)c3cccc(Cl)c3)C2)CC1 (stereo not given) | active: 53.3%
87 | CN(C(=O)c1cnc(N2CCOCC2)c2ccccc12)c1ccccc1F | -13.8%
88 | CCn1nc(-c2ccccc2)c(-c2ccccc2)c(C(=O)Nc2ccccc2C(N)=O)c1=O | -0.67%
89 | O=C(Cc1ccccc1)NC1CC(=O)N(c2ccc3c(c2)OCCO3)C1 (stereo not given) | -18.3%
90 | Cc1c(CC(=O)N2CCCCC2)c(=O)oc2c(C)c(O)ccc12 | -5.71%
91 | CCN(CC)c1ccc(NC(=O)C(NS(=O)(=O)c2cccs2)C(C)C)c(C)c1 (stereo not given) | -2.08%
92 | O=C(OCc1ccccc1F)c1ccc(-c2nnn(Cc3ccccc3)n2)cc1 | -1.65%
93 | O=C1c2ccccc2-c2onc3c(Br)cc(NC4CCCCC4)c1c23 | 0.611%
94 | Cc1cccc(N2C(=O)CSC23C(=O)N(CC(=O)NCCc2ccccc2)c2ccccc23)c1 (stereo not given) | 2.62%
95 | O=C(CSc1nnc(-c2cccs2)o1)Nc1cccc(C(F)(F)F)c1 | -23.4%
